# PubChem BioAssay AID434955 (Southern Research Specialized Biocontainment Screening …, 2010)
# Some of the results follow. Shown are side measurements of this screen, not its main read-out; they come without a call. Most of these compounds were active or inconclusive in the main read-out, so they are no random draw.
# Assay: beta-lactam sensitization of Mtb H37Rv, H37Rv (AID 434955);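 note: growth measured after seven days incubation then overnight dye step; 0% = bacteria only wells and 100% = bacteria with antibiotic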
# Conditions: M. tuberculosis H37Rv growth with meropenem, percent inhibition; measured here: primary screen without meropenem; at 25 µM
row,SMILES,inhibition [%]
1,O=C(CSc1nnc(CNC(=O)c2ccccc2)o1)Nc1ccc2c(c1)OCCO2,5
2,Cc1cc(C)cc(NC(=O)N2CCC(NC(=O)c3ccc(F)cc3)CC2)c1,-1.7
3,CN1CCN(c2ccccc2NC(=O)c2ccc(-c3ccc(Br)cc3)o2)CC1,10.9
4,CC1CN(c2nc3c(c(=O)[nH]c(=O)n3C)n2Cc2ccccc2F)CC(C)O1 (centres undefined),4.11
5,O=C1c2[nH]nc(-c3ccccc3O)c2C(c2cccc(Cl)c2)N1Cc1ccco1 (centres undefined),2.54
6,CCCNc1c(NS(=O)(=O)c2c(F)c(F)c(F)c(F)c2F)c(=O)oc2ccccc12,3.8
7,COC(=O)C1=CN(C)C=C(C(=O)OC)C1c1ccc(Cl)cc1Cl,0.81
8,Cn1c(=O)c(=O)n(C)c2cc(S(=O)(=O)N3CCc4ccccc43)ccc21,-4.35
9,COc1cccc(CNC(=O)CCC2CCCN(C(=O)c3ccc(F)c(Cl)c3)C2)c1 (centres undefined),10.5
10,CCN(CC)C(=O)C(C)N(C#N)c1nc(SC)nc(N(C)C)n1 (centres undefined),3.55
11,CCOC(=O)c1oc2ccccc2c1NC(=O)c1cc(OC)cc(OC)c1,4.52
12,COc1ccc(N(CC(=O)NC2CCCCCC2)S(=O)(=O)c2ccc(C)cc2)cc1OC,0.68
13,Cc1[nH]c(C)c(S(=O)(=O)N2CCN(c3ccccc3)CC2)c1C(=O)N1CCCCC1,0.85
14,CCN(Cc1ccccc1)S(=O)(=O)c1c[nH]c(C(=O)OC)c1,-8.72
15,COc1ccc(C(=O)N2CCN(c3ccc([N+](=O)[O-])c(NCCc4ccc(OC)c(OC)c4)c3)CC2)cc1,2.65
16,CCCC(=O)NC(c1ccccc1Cl)c1c(O)ccc2ccccc12 (centres undefined),-2.61
17,O=C(CN1C(=O)COc2ccccc21)N1CCCc2ccccc21,-1.64
18,CN1CCN(c2oc(-c3ccccc3)nc2S(=O)(=O)c2ccc(Br)cc2)CC1,11.7
19,COC(=O)Cn1ncc2c3ccccc3n(Cc3ccccc3)c2c1=O,-3.64
20,COc1cc(OC)c(OC)cc1/C=N/n1c(COc2ccccc2)n[nH]c1=S,2.15
21,Cc1ccc(S(=O)(=O)N(C)c2ccc(OCC(=O)Nc3nc4c(ccc5ccccc54)s3)cc2)cc1,-3.14
22,c1ccc(-c2cc(N3CCOCC3)nc3ccccc23)cc1,16.1
23,Nn1c(SCc2nc3ccccc3[nH]2)nnc1-c1cccnc1,-4.89
24,O=C1S/C(=C\C=C\c2ccco2)C(=O)N1c1ccccc1,27.6
25,COc1cc2c(cc1OC)C(C(=O)Nc1ccccn1)C(c1cccnc1)N(C)C2=O (centres undefined),-0.17
26,S=c1[nH]nc(C2CCCCC2)n1/N=C/c1ccc(Cl)cc1,7.73

row,SMILES,inhibition [%]
1,CCc1nnc(NC(=O)CSc2nnc(C)n2CC2CCCO2)s1 (centres undefined),0.94
2,CCc1ccc(C(C)(O)C(CN2CCOCC2)c2ccccc2)cc1 (centres undefined),1.19
3,O=C(Nc1ccc(F)cc1)C1CCCN(S(=O)(=O)c2ccc3[nH]c(=O)ccc3c2)C1 (centres undefined),-10.1
4,CC(C)(C)c1ccc(C(=O)NNC(=O)C(=O)N2CCCCC2)cc1,41
5,O=C(CN1C(=O)/C(=C/c2ccccc2Cl)SC1=S)NC1CCS(=O)(=O)C1 (centres undefined),1.71
6,Cc1cn([C@@H](CCCCNC(=O)OC(C)(C)C)C(=O)NCCCCCCCCCCC(=O)N2CCN(C(=O)OC(C)(C)C)CC2)nn1,-1.06
7,COC(=O)C(NC(=O)c1ccccc1C)(Nc1ncc(S(=O)(=O)c2ccc([N+](=O)[O-])cc2)s1)C(F)(F)F (centres undefined),80.9
8,CCOc1ccc(N/C=C/C(=O)c2ccccc2)c([N+](=O)[O-])c1,-1.71
9,Cc1oc2c(CN3CCCC3)c(O)ccc2c(=O)c1Oc1ccccc1Br,-2.52
10,Cc1cc(NC(=O)CN2C(=O)c3ccccc3S2(=O)=O)no1,7.34
11,Cc1ccc(SCC(=O)NC2CCCCCC2)cc1,12.7
12,COc1ccc(C(=O)O)cc1NC(=S)NC(=O)CSc1ccc(Cl)cc1,-1.03
13,COc1ccc(-n2c(SCC(=O)N3CCOCC3)nc3ccccc3c2=O)cc1,-7.37
14,CCSc1nnc(Cn2c(=O)sc3ccccc32)n1-c1ccccc1C,-1.5
15,Cc1cc(C(=O)CN2C(=O)CCC2=O)c(C)n1Cc1ccccc1,1.95
16,CCN(C(=O)c1cccc(NC(=O)c2ccccc2)c1)C1CCCCC1,3.97
17,O=C(CCCN1C(=O)/C(=C/c2ccccc2Cl)SC1=S)NCCCN1CCOCC1,0.91
18,COc1ccccc1CNC(=O)c1cc(C2CC2)nc2c1cnn2C(C)C,89
19,CCn1nc(C)c(C(=O)Nc2cc(Oc3ccc(Cl)cc3)cc([N+](=O)[O-])c2)c1C,8.98
20,COC(=O)c1ccccc1NC(=O)c1ccc(-c2ccc(Br)cc2)o1,18.2
21,COc1ccc(CCNC(=O)C2CCCN(S(=O)(=O)c3cc(C)ccc3OC)C2)cc1OC (centres undefined),-1.02
22,Cc1cccc(CN2CCNC2=O)c1,1.68
23,CC(Oc1ccc(Cl)cc1Cl)C(=O)NCCCCc1ccccc1 (centres undefined),30.3
24,COCC1CCCCN1C(=O)c1ccc2oc(CCc3ccccc3)nc2c1 (centres undefined),2.95
25,C/C(CC(=O)Nc1ccc(Cl)cc1)=N\NC(=O)C(=O)NCCO,-11.9
26,Cc1cc2c(=O)n(Cc3ccco3)c(SCC(=O)c3ccc(Cl)s3)nc2s1,2.63

row,SMILES,inhibition [%]
1,COc1ccc2nc(/N=C/c3c(C)[nH]n(-c4ccc(C)cc4)c3=O)sc2c1,28.7
2,C=CCC1(CC=C)CCCN1C(=O)c1cc(COc2ccccc2SC)on1,9.16
3,CC(C)CCN(C(=O)Nc1ccccc1)C(C)c1cccs1 (centres undefined),-9.79
4,Cc1ccc(S(=O)(=O)Nc2ccccc2C(=O)N2CCN(C)CC2)cc1,-6.88
5,Cc1ccc2c(C)c(C(=O)Nc3ccc(S(=O)(=O)Nc4onc(C)c4C)cc3)oc2c1,5.87
6,O=C(Cc1ccc2c(c1)OCCO2)N1CCN(S(=O)(=O)c2ccccc2C(F)(F)F)CC1,6.46
7,CCOc1ccc(-c2nnc(-c3ccc(OC)cc3)o2)cc1,16.9
8,Cc1ccc(S(=O)(=O)N2CCC(C(=O)N3CCN(c4ccccn4)CC3)CC2)cc1,3.29
9,COC(=O)CN1C(=O)CC(C)(C)S(=O)c2ccccc21 (centres undefined),-5.73
10,O=C(CN(Cc1ccc(Br)cc1)S(=O)(=O)c1ccccc1)NCC1CCCO1 (centres undefined),0.67
11,O=C1c2ccccc2C(=O)N1n1c(=O)[nH]c2ccccc2c1=O,2.08
12,Cc1ccc(C)c(CN2CCC(CNC(=O)Nc3ccc(F)c(Cl)c3)CC2)c1,28.4
13,O=C(c1cc[n+]([O-])cc1)N1CCCC(N2CCN(c3cccc(C(F)(F)F)c3)CC2)C1 (centres undefined),2.34
14,Cc1cc(C(F)(F)F)nc(SCC(=O)Nc2cc(C)on2)n1,5.08
15,COc1ccc(N(CC(=O)NCCSC2CCCCC2)S(=O)(=O)c2ccccc2)c(OC)c1,0.89
16,Cc1cc(C)n(S(=O)(=O)c2ccc(C(C)(C)C)cc2)n1,-6.26
17,COc1ccc(C(=O)N(CN2CCCC2=O)c2nccs2)cc1OC,-7.69
18,Cn1c(=O)n(CCc2ccccc2)c(=O)c2c1nc1n2CCN1Cc1ccco1,2.12
19,Cc1oc2cc3oc(=O)c(CCC(=O)N(C)CC(=O)O)c(C)c3cc2c1C,2.68
20,CN(/N=C/c1ccncc1)c1cnc2ccccc2n1,1.96
21,CCc1nc(N2CCN(C(=O)c3ccco3)CC2)c2oc3ccccc3c2n1,2.24
22,O=C(COC(=O)C1=COCCO1)Nc1ccc2c(c1)OCO2,30.9
23,O=C(c1ccc(Cn2cc([N+](=O)[O-])cn2)o1)N1N=C(C(F)F)CC1(O)C(F)F (centres undefined),-6
24,CC(C)(C#CC(=O)O)OOC(c1ccccc1)(c1ccccc1)c1ccccc1,-0.11
25,CCN(C(=O)c1cc2c(=O)[nH]c3ccc(C)cc3c2s1)c1cccc(C)c1,5.56
26,O=C(NCc1ccc(F)cc1)c1cc(-c2ccco2)on1,-2.9

row,SMILES,inhibition [%]
1,N#Cc1nc(-c2ccccc2Cl)oc1N1CCN(C(=O)c2ccco2)CC1,5.03
2,Cc1ccc(C2C(N)C(=O)N2c2ccc(C)cc2)cc1 (centres undefined),-3.55
3,Cc1cc2cc(CNC(=O)C(C)Oc3ccccc3)ccc2n1C (centres undefined),28
4,CCOC(=O)c1ccc(/[N+]([O-])=C/c2ccccc2)cc1,91.2
5,CCCS(=O)(=O)Nc1ccc(-c2cn3c(n2)SCC3)cc1,1.99
6,COc1cc(CN2CCN(c3cc(C)ccc3C)CC2)cc([N+](=O)[O-])c1O,6.13
7,O=C(Nc1cccc(Cl)c1Cl)c1ccccc1OCC(=O)N1CCOCC1,14.7
8,Cc1cccc(C(=O)Nc2nnc(SCC(=O)NCc3ccco3)s2)c1,5.04
9,COc1ccccc1NC(=O)NCCN1CCN(c2cccc(Cl)c2)CC1,10.6
10,CCc1ccc(OCC(=O)Nc2ccc3c(c2)COC3=O)cc1,87
11,Cc1ccc(-c2nc3ccccc3o2)cc1NC(=S)NC(=O)/C=C/c1ccco1,-10.3
12,CCc1noc(C)c1C(=O)OCC(=O)c1ccccc1OC,12
13,O=C(Cc1cccc2ccccc12)N/N=C/c1ccc(O)c([N+](=O)[O-])c1,22.5
14,COc1cc(/C=N/NC(=O)C(C)Nc2n[nH]c(=O)[nH]c2=O)ccc1O (centres undefined),-2.67
15,Cc1cc(C)cc(OCC(=O)NNC(=O)c2ccoc2C)c1,-9.06
16,CCOC(=O)c1[nH]c(C)c(C(=O)Nc2ccccc2F)c1C,-1.43
17,C=CCn1c(=NC(=O)c2sc3ccccc3c2Cl)sc2cc(S(N)(=O)=O)ccc21,1.04
18,CCCCNC(=O)c1onc(CSc2ccc(F)c(F)c2)c1C(=O)O,-2.03
19,CCOc1ccc(-c2nnc(-c3cccs3)o2)cc1OCC,48.8
20,CCOC(=O)CSc1nnc(NC(=O)c2cccc(S(=O)(=O)N3CCCCC3)c2)s1,49
21,O=C1CS/C(=N/N=C\c2ccn[nH]2)N1,11.4
22,Cc1c(Cl)cccc1NC(=O)CSc1nc2c(c(=O)[nH]1)CCCC2,-2.92
23,CC(=O)c1ccc(C(=O)N2CCCC(CNC(=O)c3ccccc3Cl)C2)cc1 (centres undefined),-4.64
24,CC(=O)c1ccc(OCc2cc(C(=O)N(C)Cc3nc4c(C)cccc4[nH]3)no2)cc1,10.9
25,COc1ccc(CNS(=O)(=O)c2c(C)[nH]c(C)c2C(=O)N2CCCC2)cc1,1.27
26,CN(CC1CCCO1)S(=O)(=O)c1ccc(C(=O)Nc2ccc([N+](=O)[O-])cc2)cc1 (centres undefined),16.9
